# Reference: PubChem BioAssay AID624296 (National Center for Advancing Translational Sciences (NCATS), 2012)
# The campaign covered roughly 350,000 compounds. About 9,900 (2.8%) were called active. This list was built around the results that the source calls inconclusive (neither active nor inactive); the mix of calls is not that of the screen. Calls follow the shape of the dose curve; as a rule, active = well fitted activation curve with a large enough effect; inconclusive = small, poorly fitted or top-dose-only effect; inactive = no such curve, though single readings can be large or run the other way. Potencies of inconclusive entries are left out as doubtful fits.
# Test: A quantitative high throughput screen for small molecules that induce DNA re-replication in MCF 10a normal breast cells. Also: nearly all actives have a fitted effect of over 50% in size.
# Conditions: MCF 10A DNA re-replication, Hoechst nuclear intensity, 48 h; series mostly up to 46.1 µM
# Potency is read from the fitted curve at half-maximal effect; tags tell the direction and shape of the fitted curve.
row,SMILES,Potency
1,CCOC(=O)c1nc(N/N=C/c2ccccc2)sc1Br,"inconclusive [activator, single point]"
2,CC(C)c1ccc(C2/C(=C(/O)c3ccccc3)C(=O)C(=O)N2CCCN2CCOCC2)cc1 (centres undefined),"inconclusive [activator, single point]"
3,O=C1COc2ccc(C(=O)CSc3nc4ccccc4c(=O)n3-c3ccc(Cl)c(Cl)c3)cc2N1,active: 13 µM
4,N#CC1=C(N)Oc2n[nH]c(-c3cccs3)c2C1c1ccncc1 (centres undefined),inactive
5,CC(C)c1nnc(NC(=O)c2cc3cc(Br)ccc3oc2=O)s1,"inconclusive [activator, single point]"
6,Cc1ccccc1C(=O)NNC(=O)C(=O)N1CCCCC1,inactive
7,Cc1nn(-c2ccccc2)c(N)c1N=Nc1ccc(Cl)cc1,"inconclusive [activator, single point]"
8,Cc1cnccc1CNC(=O)CC1C(=O)NCCN1CC(C)(C)C (centres undefined),inactive
9,CCS(=O)(=O)Nc1cccc(C2=NN(S(=O)(=O)c3ccc(F)cc3)C(c3cccs3)C2)c1 (centres undefined),"inconclusive [activator, single point]"
10,CCN(CC(=O)Nc1ccc(OC)cc1)CC(=O)Nc1sc2c(c1C(=O)OC)CCCC2,"inconclusive [activator, single point]"
11,O=C(CN1C(=O)C2C3CC(C(Br)C3Br)C2C1=O)N1CCOCC1 (centres undefined),"inconclusive [activator, single point]"
12,O=[N+]([O-])c1cc(-c2nc3nc4ccccc4nc3n2CCc2ccccc2)cc([N+](=O)[O-])c1,"inconclusive [activator, partial curve, poor fit]"
13,O=C(COC(=O)c1ccc(NS(=O)(=O)c2cccs2)cc1O)NCc1ccccc1,active: 2.31 µM
14,CCCOc1ccc(C(=O)C(CCC(CNCC)C(=O)c2ccc(OCCC)cc2)CNCC)cc1 (centres undefined),active: 25.9 µM
15,CC1(C)Oc2ccc3ccc(=O)oc3c2/C(=C/Nc2cccc(O)c2)C1=O,active: 11.6 µM
16,COc1cccc2c3cccc(OC)c3c3[nH]cnc3c12,active: 20.6 µM
17,COc1ccccc1NC(=S)N(CCc1ccc(OC)c(OC)c1)Cc1ccccn1,inactive
18,CC(C)c1ccc(/C=C2\C(=O)N(CCN3CCOCC3)C(=S)N2C)cc1,"inconclusive [activator, single point]"
19,Cc1ccc(C2(C)NC(=O)N(CC(=O)Nc3c(C)n(C)n(-c4ccccc4)c3=O)C2=O)cc1 (centres undefined),"inconclusive [activator, single point]"
